Data reported in the supplement of paper PMC4466236.
The full ranking holds about 33,000 sequences; the median of “E-score (dimensionless, -0.5 to 0.5)” is about -0.058, and the highest 2% start at about 0.35. Some of the results follow.

tested on: MvaT; test: PBM 8-mer E-score (mean of HK and ME arrays) (E-score (dimensionless, -0.5 to 0.5)); higher = stronger relative binding preference; most listed sequences are background and not binding sites
Method in brief: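 Reported values are rank-based E-scores, taken as the mean of two universal arrays and parsed with a custom script. Each 8-mer score falls between -0.5 and 0.5. The arrays, ME and HK, were double-stranded 60-mers with a constant 25-mer primer region and a variable 35-mer region covering all 8-mers. They were probed, by an earlier protocol, with full-length P. aeruginosa MvaT carrying an N-terminal glutathione S-transferase fusion.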

Row | Sequence | PBM 8-mer E-score
1 | TTACCAAA | 0.233
2 | GATGAGGC | -0.316
3 | ATAAAAGC | 0.2
4 | CCGATCGC | -0.21
5 | AGAGAATC | -0.11
6 | CGAACACA | -0.0305
7 | TCATCGAA | -0.15
8 | AGTATGAT | 0.247
9 | GGGAGATA | -0.15
10 | GGATTGCA | 0.0859
11 | AAAGGTGA | -0.0481
12 | ACGTTTTG | 0.112
13 | CGCGGTTA | 0.0149
14 | GGCGAGCA | -0.176
15 | GTCTAAAA | 0.109
16 | CCGGTGAG | -0.252
17 | GCTAATAA | 0.338
18 | AGAAAAGG | -0.129
19 | GATGATAC | -0.0969
20 | TACATACA | 0.301
21 | ATAAACGG | 0.217
22 | AATCGTGA | -0.12

Row | Sequence | PBM 8-mer E-score
23 | CGGCGACG | -0.124
24 | CGCGTTAA | 0.183
25 | CCTATCCG | -0.119
26 | GCCCGCGC | -0.262
27 | AATCGTCA | -0.12
28 | CAGGCAGG | -0.314
29 | ACCGTAGG | -0.125
30 | CACCCCTG | -0.268
31 | AATTCATC | 0.115
32 | GTTCACCA | 0.0831
33 | GCGAAGAC | -0.222
34 | CGTTCTTC | -0.142
35 | GAAAACCC | -0.0978
36 | AGCCCCAG | -0.25
37 | AATGAGCA | -0.108
38 | CCCCACCG | -0.286
39 | GATATTGC | 0.14
40 | CGGGCATC | -0.216
41 | GATAATAA | 0.404
42 | CGGAAGTA | 0.131
43 | CCGTAGAG | -0.205
44 | CGCTAAAC | -0.00507

Row | Sequence | PBM 8-mer E-score
45 | CAGTAAGC | 0.0448
46 | ATGCCCAG | -0.185
47 | GCCGAAGC | -0.257
48 | AGGTGCCG | -0.21
49 | AATTTTAT | 0.324
50 | CACCATTC | -0.0583
51 | ACCAATGA | -0.075
52 | AGGAGTAC | -0.123
53 | CCCAAGGG | -0.407
54 | GTGACGAA | -0.12
55 | ACCGGGAC | -0.226
56 | AATAAGAG | 0.222
57 | AGTCCGAA | -0.135
58 | ATAGTTGG | 0.124
59 | CCTTGCAA | -0.00659
60 | GCTGTGAA | 0.176
61 | TGCGTAAA | 0.128
62 | TATGCTCA | -0.0354
63 | ATGTCCAA | -0.029
64 | AGTAGTCG | 0.0506
65 | ATTCAAAC | 0.174
66 | ACGGGAGA | -0.23

Row | Sequence | PBM 8-mer E-score
67 | ACAGGTTA | 0.00674
68 | CCCAACCA | -0.247
69 | GACTGACC | -0.197
70 | ACCCACAA | 0.0435
71 | TCCATTCA | -0.0922
72 | CAACTCGG | -0.0192
73 | AGAGCAGC | -0.263
74 | CCGTCGGA | -0.171
75 | GACCAATA | 0.115
76 | AGTGCCAT | -0.126
77 | GCACTAGC | -0.15
78 | CCGCCCTC | -0.198
79 | GGCTGCTA | -0.186
80 | CTAGCTGC | -0.273
81 | CAAGTTTC | 0.159
82 | ACCATGCT | -0.0594
83 | AAAGGTGT | 0.065
84 | CAGGACTC | -0.228
85 | CCCCAGAG | -0.159
86 | ACCCACTC | -0.000253
